# Assay results published in the supplement of paper PMC7826260.
# The list shows a part of the results. The data describe in vitro nicking of single-stranded DNA by Rep domains (1 h at 37 °C, 3 µM enzyme); the outer parts of the 90-letter strands are left off. Numbers give uncut DNA relative to the enzyme-free pool, as log2; strong cutting gives strongly negative numbers. There is no active / inactive call. Reads are scaled to the total, so uncut sequences can rise above 0 when many others are cut.
# Columns and labels:
# Experiment in all cases: uncleaved DNA left, log2 of reads against the no-enzyme library (log2 ratio); higher = less cleavage (more negative = more Rep cleavage of the k-mer); sequences stand for … in CTCGTCCG…ACCGGAGA
# [1] = test system: T1, Rep nickase domain of Muscovy duck circovirus
# T1 sequence (residues 1-111 of Rep, tag left off): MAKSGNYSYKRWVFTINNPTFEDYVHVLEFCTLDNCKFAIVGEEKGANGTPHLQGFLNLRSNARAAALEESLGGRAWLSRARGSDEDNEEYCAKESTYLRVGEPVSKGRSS
# Procedure: (§1)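 A pool of 90-nt single-stranded DNAs with seven random bases just before the constant AC of the nick site (name = the seven bases) was cut by 3 µM recombinant His6-SUMO-tagged Rep nickase domain (300 nM DNA, 50 mM HEPES pH 8.0, 50 mM NaCl, 1 mM MnCl2, 1 h, 37 °C, three replicates). Uncut DNA was amplified and sequenced.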
# [2] = test system: T2, Rep nickase domain of banana bunchy top virus
# T2 sequence (residues 1-94 of Rep, tag left off): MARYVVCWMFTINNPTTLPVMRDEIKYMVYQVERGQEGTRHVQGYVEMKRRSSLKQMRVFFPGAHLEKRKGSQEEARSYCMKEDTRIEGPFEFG
# Procedure: as §1
# [3] = test system: T3, Rep nickase domain of cabbage leaf curl virus
# T3 sequence (residues 1-116 of Rep, tag left off): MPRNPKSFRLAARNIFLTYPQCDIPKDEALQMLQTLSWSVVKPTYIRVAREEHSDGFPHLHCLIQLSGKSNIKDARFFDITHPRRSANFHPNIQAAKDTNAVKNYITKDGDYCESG
# Procedure: as §1
# [4] = test system: T4, Rep nickase domain of chickpea chlorotic dwarf virus
# T4 sequence (residues 1-124 of Rep, tag left off): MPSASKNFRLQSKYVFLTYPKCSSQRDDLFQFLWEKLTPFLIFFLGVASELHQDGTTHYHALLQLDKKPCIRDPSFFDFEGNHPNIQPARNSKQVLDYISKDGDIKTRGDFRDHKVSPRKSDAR
# Procedure: as §1
# [5] = test system: T5, Rep nickase domain of faba bean necrotic yellows virus
# T5 sequence (residues 1-98 of Rep, tag left off): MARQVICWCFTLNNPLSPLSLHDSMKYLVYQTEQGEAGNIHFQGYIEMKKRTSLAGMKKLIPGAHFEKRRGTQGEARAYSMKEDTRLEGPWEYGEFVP
# Procedure: as §1
# [6] = test system: T6, Rep nickase domain of maize striate mosaic virus
# T6 sequence (residues 1-117 of Rep, tag left off): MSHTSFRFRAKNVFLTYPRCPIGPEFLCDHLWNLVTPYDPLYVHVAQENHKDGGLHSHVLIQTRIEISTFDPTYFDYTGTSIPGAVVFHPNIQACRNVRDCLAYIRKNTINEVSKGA
# Procedure: as §1
# [7] = test system: T7, Rep nickase domain of porcine circovirus 2
# T7 sequence (residues 2-116 of Rep, tag left off): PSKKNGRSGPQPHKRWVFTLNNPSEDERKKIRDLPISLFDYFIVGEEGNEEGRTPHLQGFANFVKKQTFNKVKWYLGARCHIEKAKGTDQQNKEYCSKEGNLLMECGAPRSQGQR
# Procedure: as §1
# [8] = test system: T8, Rep nickase domain of tomato golden mosaic virus
# T8 sequence (residues 1-124 of Rep, tag left off): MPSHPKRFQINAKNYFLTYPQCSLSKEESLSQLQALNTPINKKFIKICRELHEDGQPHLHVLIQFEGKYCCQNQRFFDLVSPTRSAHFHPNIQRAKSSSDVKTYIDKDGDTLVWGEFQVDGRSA
# Procedure: as §1
# [9] = test system: T9, Rep nickase domain of tomato yellow leaf curl virus
# T9 sequence (residues 1-136 of Rep, tag left off): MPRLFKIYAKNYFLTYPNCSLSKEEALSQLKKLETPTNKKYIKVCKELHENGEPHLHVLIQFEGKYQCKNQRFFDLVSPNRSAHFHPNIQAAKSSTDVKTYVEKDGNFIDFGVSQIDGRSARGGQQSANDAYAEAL
# Procedure: as §1
# [10] = test system: T10, Rep nickase domain of wheat dwarf virus
# T10 sequence (residues 1-137 of Rep, tag left off): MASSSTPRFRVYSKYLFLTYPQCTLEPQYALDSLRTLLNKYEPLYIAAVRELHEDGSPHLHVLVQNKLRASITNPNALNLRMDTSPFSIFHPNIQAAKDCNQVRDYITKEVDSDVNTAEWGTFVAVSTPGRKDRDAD
# Procedure: as §1
Sequence,uncleaved DNA left (log2) [1],uncleaved DNA left (log2) [2],uncleaved DNA left (log2) [3],uncleaved DNA left (log2) [4],uncleaved DNA left (log2) [5],uncleaved DNA left (log2) [6],uncleaved DNA left (log2) [7],uncleaved DNA left (log2) [8],uncleaved DNA left (log2) [9],uncleaved DNA left (log2) [10]
ATACTAT,0.0981,-0.00928,-0.0749,-1.52,-0.0167,-0.566,-0.163,0.0348,0.0249,0.0328
GTATCAG,0.0857,0.0461,-0.211,-0.149,0.0525,-0.747,0.115,0.101,0.000341,0.0125
GTACGCC,-0.0132,-0.0147,0.262,0.532,-0.043,0.878,-0.0388,-0.104,-0.0284,0.0201
CCCGGAC,-0.127,-0.162,0.341,0.984,-0.21,1.21,-0.0818,-0.0889,-0.22,-0.179
TGGGGGG,0.031,-0.0329,0.125,0.329,-0.125,0.296,0.13,0.0761,-0.069,-0.199
CAATCCA,-0.234,0.0716,-2.18,-2.46,0.0487,-1.24,-0.955,-0.604,0.0344,-0.905
CGCATAG,0.105,0.0826,-0.548,-0.351,0.0123,-0.975,0.197,0.0997,0.194,0.0207
ACGTTGT,-0.0016,-0.0597,-0.341,-0.441,-0.0352,-0.796,-0.577,0.0895,-0.0572,-0.0713
AAGGGTA,-0.0694,0.136,0.301,1.31,-0.0521,1.5,0.0831,0.163,-0.0287,0.0453
GCAGAGT,0.0564,0.168,-0.0591,-0.128,0.0552,-0.418,0.00112,0.145,0.0905,0.092
CTTCACG,-0.0534,0.13,-0.975,-0.326,0.0718,-1.04,0.155,-0.102,0.00444,-0.0377
TCTCTGG,0.142,-0.0133,0.418,0.837,0.136,0.98,0.191,0.187,0.0882,0.111
TGTTTTG,0.175,0.0583,-0.333,-0.394,0.238,-0.997,0.179,0.0255,0.129,0.0638
ACCGGCT,-0.0867,-0.121,-0.289,-0.591,-0.195,-0.721,-0.00591,-0.121,-0.0712,-0.0791
TCCTACC,-1.14,-0.13,-0.452,-2.67,-0.273,-0.458,-2.9,-0.0489,-0.0277,-0.566
GTTGTGT,-0.0569,-0.108,-0.0794,0.0581,-0.0626,-0.211,-0.0339,-0.0348,0.014,-0.0703
TTTGAGT,0.0376,-0.185,-0.522,-0.907,0.0327,-1.02,-0.0425,-0.0162,-0.0471,-0.161
CTCTTAT,-0.33,-0.122,0.125,-1.09,-0.133,-0.627,-1.35,-0.0471,0.0314,-0.178
AATAGCT,0.0641,-0.0503,-0.502,-1.21,0.103,-0.91,-0.566,0.0256,0.0348,0.00147
AGGCAGA,0.0189,-0.056,0.403,0.856,0.0965,0.377,0.205,0.0832,0.0666,0.0806

Sequence,uncleaved DNA left (log2) [1],uncleaved DNA left (log2) [2],uncleaved DNA left (log2) [3],uncleaved DNA left (log2) [4],uncleaved DNA left (log2) [5],uncleaved DNA left (log2) [6],uncleaved DNA left (log2) [7],uncleaved DNA left (log2) [8],uncleaved DNA left (log2) [9],uncleaved DNA left (log2) [10]
TTGCAAG,-0.0528,-0.136,-0.83,-0.0808,0.0334,-0.991,0.0351,-0.211,0.0391,-0.205
ACATTTC,0.0221,0.00692,-0.235,-0.18,-0.025,-1.05,0.176,-0.0299,0.033,0.0545
ATGGTCC,-0.00406,0.0898,0.168,0.0168,-0.0592,0.236,-0.0666,0.0398,0.0469,-0.0193
CATATCG,0.0601,0.109,-0.644,0.355,0.0764,-0.769,0.271,-0.0426,0.158,0.0616
TTATACG,0.0172,0.0745,-0.775,-0.731,-0.106,-1.17,0.125,-0.028,0.0444,-0.0687
GAAAGCT,-0.0194,0.0233,-0.425,-1.42,-0.0515,0.231,-0.0073,-0.00988,-0.081,-0.0773
GGATGGA,0.00951,-0.0149,0.565,1.09,0.00669,1.6,0.106,-0.0236,-0.0887,-0.0203
AGCAGCC,0.084,0.0406,0.00713,0.261,-0.0233,-0.197,0.0799,0.0347,0.0735,0.0931
GCTCGTC,-0.0911,0.0174,0.349,1.3,-0.0189,1.08,-0.104,-0.0386,0.0283,-0.0715
TTTTAGG,0.0659,-0.16,0.483,1.37,0.0998,1.8,0.141,0.0691,-0.0938,-0.0214
CAGTCTT,-3.03,-3.04,-0.955,-2.69,-3.11,-0.304,-4.31,-0.46,0.0777,-0.245
TAGCTTC,0.052,0.124,0.16,-0.391,0.0574,-0.406,-0.948,-0.0229,0.0675,0.0518
GTGAAAT,0.235,0.237,0.499,1.31,0.124,2.01,0.225,0.193,0.233,0.262
ATGCGTC,0.0121,-0.193,-0.853,-0.807,-0.0876,-1.12,0.037,-0.156,0.0148,-0.228
CTGATGG,-0.0534,-0.139,-0.209,-0.0147,-0.00214,-0.724,-0.00161,-0.119,-0.19,-0.159
AGTCTCA,0.0633,-0.0122,0.14,-0.264,0.0174,0.155,-1.13,0.0266,0.0518,0.0706
CTTGTTT,-0.079,-0.206,-0.113,-2.05,-0.0131,-0.846,-1.34,-0.125,-0.000212,-0.169
TCGCAAG,0.0951,0.0847,-0.189,-0.127,0.167,-0.783,0.202,0.151,-0.0436,0.0819
CGAGTAC,0.0469,-0.0472,0.0601,0.0806,0.0196,0.0591,-0.141,-0.0629,-0.015,0.0382
GGTATGA,0.0542,0.155,0.583,1.31,0.146,1.83,0.245,0.0968,0.166,0.118

Sequence,uncleaved DNA left (log2) [1],uncleaved DNA left (log2) [2],uncleaved DNA left (log2) [3],uncleaved DNA left (log2) [4],uncleaved DNA left (log2) [5],uncleaved DNA left (log2) [6],uncleaved DNA left (log2) [7],uncleaved DNA left (log2) [8],uncleaved DNA left (log2) [9],uncleaved DNA left (log2) [10]
CCTAACT,-0.054,-0.0303,-0.564,-2.64,0.0153,-0.921,-0.167,-0.0824,0.00205,-0.114
AGGTGGA,-0.0371,0.00422,0.154,0.45,-0.0397,0.619,0.071,0.0274,-0.0684,-0.0665
GTTATGC,-0.00746,-0.000799,0.112,0.477,-0.021,-0.0386,0.12,-0.0319,0.0667,0.0344
CAGAGCC,-0.0897,0.00266,-0.158,-0.0916,-0.146,-0.723,-0.0886,-0.0963,-0.00512,-0.0527
CCTGCAT,-0.0373,-0.00894,-0.389,-0.753,-0.0484,-0.843,-0.0307,-0.0135,-0.0815,-0.116
TATGTGC,0.0625,-0.142,-0.692,-0.692,-0.0064,-1.23,0.0465,-0.161,-0.0315,-0.0873
GCTAACT,-0.0399,0.103,-0.185,-1.89,0.0419,-0.0877,-0.153,-0.00577,0.0671,-0.0767
TGGAAGT,0.0975,0.0688,0.429,0.855,-0.0579,0.629,0.0987,-0.039,-0.0751,0.196
AGTCGCT,0.0233,0.0178,0.175,0.657,-0.0733,0.918,-1.35,0.00731,0.0568,-0.0496
TGGCCAA,-0.0723,0.0779,0.453,0.889,-0.0653,0.865,0.0813,0.0258,0.126,0.165
CTCACCC,-0.172,-0.0713,-0.074,-0.679,-0.12,-0.416,-0.469,-0.168,-0.071,-0.0444
TAGCAAT,0.0459,0.0743,0.04,-1.02,-0.0156,0.379,-3.17,0.0415,-0.0609,0.0312
CCGTTGT,-0.056,-0.0916,-0.205,-0.729,-0.113,-0.787,-0.979,-0.0322,-0.0159,-0.0795
AGGTCCT,0.0478,0.0223,0.368,-0.0218,0.0447,0.893,-1.71,-0.0358,0.0891,0.241
TGAGTTG,-0.0505,-0.0177,0.0502,0.198,-0.104,0.227,0.0825,-0.063,-0.197,-0.0635
GGCGGTA,0.105,0.00838,0.277,0.626,0.0845,0.988,-0.226,0.121,-0.0681,-0.038
GAGTTTC,-0.246,-0.109,0.0935,0.364,-0.223,0.948,-2.82,-0.147,0.00512,-0.0586
CCAGCTT,-0.123,-0.24,0.106,-1.05,-0.0252,0.712,-0.093,-0.00827,-0.0615,-0.0736
AAACGAT,-0.0193,-0.114,0.0838,0.64,-0.177,1.39,0.0533,0.0619,-0.305,-0.0459
TGCATCG,-0.0353,0.0177,-0.868,-0.389,-0.0217,-1.12,0.206,-0.0843,-0.0448,-0.206
